Results taken from a collection of fitness landscapes (doi:10.1016/j.celrep.2020.107928).
Whole data set: some 81,000 sequences, median “one-hybrid fitness for binding parS DNA” near -0.17, cut for the highest 2% near 0.51. Some of the results follow.

B1: Caulobacter ParB omega fusion; a variant is named by its letters at X, in order, B8GW30 (parent)
chain: MESVVVGEPGMSEGRRGLGRGLSALLGEVDAAPAQAPGEQLGGSREAPIEILQRNPDQPRRTFREEDLEDLSNSIREKGVLQPILVRPSPDTAGEYQIVAGERAWRAAQRAGLKTVPIMVRELDDLAVLEIGIIENVQRADLNVLEEALSYKVLMEKFERTQENIAQTIGKSXSHVANXMRLLXLPDEVQSYLVSGELTAXHARAIAAAADPVALAKQIIEGGLSVRETEALARKAPNLSAGKSKGGRPPRVKDTDTQALESDLSSVLGLDVSIDHRGSTGTLTITYATLEQLDDLCNRLTRGI

Variants of: B1
Assay: one-hybrid fitness for binding parS DNA (scaled: cognate 1, non-cognate 0); higher = stronger binding
Settings: with parS DNA site
Summary of the method: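 Caulobacter ParB libraries with four specificity codons randomised were screened by bacterial one-hybrid selection in the E. coli USO strain, using a HIS3 reporter whose site lies 19 bp from the promoter. Selection ran for 48 hours at 37°C on M9 lacking histidine, with 0.1 mM IPTG and 5 mM 3-AT. Plasmids were Illumina-sequenced before and after selection, three replicate libraries were pooled, and variants with under 10 reads were dropped. Fitness is the log change in each variant's read ratio to wild type, rescaled against the cognate and non-cognate sites.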

Row | Variant | one-hybrid fitness for binding parS DNA
1 | AMRV | ≤ 0.2
2 | PNAR | ≤ 0.2
3 | VTWY | ≤ 0.2
4 | APRD | ≤ 0.2
5 | FYGS | ≤ 0.2
6 | QPPY | ≤ 0.2
7 | LYWG | ≤ 0.2
8 | FTQE | ≤ 0.2
9 | NYTT | ≤ 0.2
10 | PPGA | ≤ 0.2
11 | QMKS | ≤ 0.2
12 | LLSM | ≤ 0.2
13 | LSKL | ≤ 0.2
14 | KRWM | ≤ 0.2
15 | PIEV | ≤ 0.2
16 | HRYS | 0.43
17 | QRPW | ≤ 0.2
18 | SAGK | ≤ 0.2
19 | NYPM | ≤ 0.2
20 | RWPW | ≤ 0.2
21 | RGQL | ≤ 0.2
22 | APTH | ≤ 0.2
23 | RTMV | ≤ 0.2
24 | WHVC | ≤ 0.2

Row | Variant | one-hybrid fitness for binding parS DNA
25 | YDSW | ≤ 0.2
26 | AQKK | ≤ 0.2
27 | RHQH | ≤ 0.2
28 | GCFS | ≤ 0.2
29 | TAAL | ≤ 0.2
30 | NVWT | ≤ 0.2
31 | TTKN | ≤ 0.2
32 | ILAP | ≤ 0.2
33 | KGRT | ≤ 0.2
34 | PGIN | ≤ 0.2
35 | ILLD | ≤ 0.2
36 | FGAC | ≤ 0.2
37 | CIGV | ≤ 0.2
38 | AAAS | ≤ 0.2
39 | LTKQ | ≤ 0.2
40 | KTTK | ≤ 0.2
41 | NFDE | ≤ 0.2
42 | PPLQ | ≤ 0.2
43 | ATRT | ≤ 0.2
44 | KQLL | ≤ 0.2
45 | DFGS | ≤ 0.2
46 | SSVH | ≤ 0.2
47 | VGCG | ≤ 0.2
48 | RYMH | ≤ 0.2

Row | Variant | one-hybrid fitness for binding parS DNA
49 | TKSV | ≤ 0.2
50 | IMCS | ≤ 0.2
51 | ASMV | ≤ 0.2
52 | QVSF | ≤ 0.2
53 | QLNG | ≤ 0.2
54 | KRRP | ≤ 0.2
55 | YKKC | ≤ 0.2
56 | AINK | ≤ 0.2
57 | RNIP | ≤ 0.2
58 | HSDI | ≤ 0.2
59 | GNTW | ≤ 0.2
60 | QTHE | ≤ 0.2
61 | HGLL | ≤ 0.2
62 | LRRK | ≤ 0.2
63 | SCWR | ≤ 0.2
64 | RSCG | 0.966
65 | YGEP | ≤ 0.2
66 | QQRC | ≤ 0.2
67 | QPQE | ≤ 0.2
68 | ARHG | ≤ 0.2
69 | PACE | ≤ 0.2
70 | NEIL | ≤ 0.2
71 | CTWT | ≤ 0.2
72 | LFGT | ≤ 0.2

Row | Variant | one-hybrid fitness for binding parS DNA
73 | LGRT | ≤ 0.2
74 | YSIW | ≤ 0.2
75 | YIGV | ≤ 0.2
76 | NGSC | ≤ 0.2
77 | MPGA | ≤ 0.2
78 | KHSL | ≤ 0.2
79 | TVEW | ≤ 0.2
80 | QGPV | ≤ 0.2
81 | QHPE | ≤ 0.2
82 | LEEV | ≤ 0.2
83 | RVSH | ≤ 0.2
84 | GVDR | ≤ 0.2
85 | ACEH | ≤ 0.2
86 | SDTI | ≤ 0.2
87 | NYGR | ≤ 0.2
88 | AFQR | ≤ 0.2
89 | ATKC | ≤ 0.2
90 | LRWV | ≤ 0.2
91 | RMEA | 0.495
92 | HGLP | ≤ 0.2
93 | MHNR | ≤ 0.2
94 | DVNN | ≤ 0.2
95 | CGCG | ≤ 0.2
96 | SRSF | ≤ 0.2

Row | Variant | one-hybrid fitness for binding parS DNA
97 | IWSG | ≤ 0.2
98 | RPTI | ≤ 0.2
99 | SYVR | ≤ 0.2
100 | CLRM | ≤ 0.2
101 | AQVE | ≤ 0.2
102 | NTQY | ≤ 0.2
103 | KPIK | ≤ 0.2
104 | EGWC | ≤ 0.2
105 | FRMW | 0.248
106 | FPYL | ≤ 0.2
107 | YTLV | ≤ 0.2
108 | TVSY | ≤ 0.2
109 | RQVR | ≤ 0.2
110 | EMKL | 0.265
111 | YATF | ≤ 0.2
112 | FSRL | ≤ 0.2
113 | LVPM | ≤ 0.2
114 | SDNA | ≤ 0.2
115 | QNYI | ≤ 0.2
116 | PDAQ | ≤ 0.2
117 | FNGF | ≤ 0.2
118 | HNKG | ≤ 0.2
119 | YISC | ≤ 0.2
120 | HPKT | ≤ 0.2

Row | Variant | one-hybrid fitness for binding parS DNA
121 | HYVF | ≤ 0.2
122 | YWVS | ≤ 0.2
123 | MQYL | ≤ 0.2
124 | TIGA | ≤ 0.2
125 | RSLY | 0.441
126 | MSAV | ≤ 0.2
127 | EITA | ≤ 0.2
128 | SKTT | ≤ 0.2
129 | QIPT | ≤ 0.2
130 | SVAS | ≤ 0.2
131 | TNLF | ≤ 0.2
132 | EQYW | 0.216
133 | YSGT | ≤ 0.2
134 | TVRS | ≤ 0.2
135 | HTPT | ≤ 0.2
136 | GMVF | ≤ 0.2
137 | TMPT | ≤ 0.2
138 | PIYP | ≤ 0.2
139 | HHPY | ≤ 0.2
140 | EHEC | ≤ 0.2
141 | SSAL | ≤ 0.2
142 | GCSG | ≤ 0.2
143 | ILNK | ≤ 0.2
144 | TNFE | ≤ 0.2

Row | Variant | one-hybrid fitness for binding parS DNA
145 | VDWL | ≤ 0.2
146 | LWYC | ≤ 0.2
147 | ATVN | 0.216
148 | ICYR | ≤ 0.2
149 | TDSF | ≤ 0.2
150 | THAN | ≤ 0.2
151 | RHKI | ≤ 0.2
152 | AYNV | ≤ 0.2
153 | EVKM | ≤ 0.2
154 | IRTC | ≤ 0.2
155 | DMYC | ≤ 0.2
156 | FVRR | ≤ 0.2
157 | AKNS | ≤ 0.2
158 | HNSA | ≤ 0.2
159 | LVMC | ≤ 0.2
160 | RYMF | 0.216
161 | GKTM | ≤ 0.2
162 | RGNS | 0.862
163 | ESPA | ≤ 0.2
164 | CYPM | ≤ 0.2
165 | TPCT | ≤ 0.2
166 | QHKE | ≤ 0.2
167 | KFGS | ≤ 0.2
168 | GWNN | ≤ 0.2

Row | Variant | one-hybrid fitness for binding parS DNA
169 | PDLR | ≤ 0.2
170 | FLRD | ≤ 0.2
171 | HICR | ≤ 0.2
172 | PHKT | ≤ 0.2
173 | NPYT | ≤ 0.2
174 | PVDM | ≤ 0.2
175 | DNKS | ≤ 0.2
176 | KIPV | ≤ 0.2
177 | KLLC | ≤ 0.2
178 | DKQL | ≤ 0.2
179 | RKSI | ≤ 0.2
180 | YTDK | ≤ 0.2
181 | QHCY | ≤ 0.2
182 | DGKP | ≤ 0.2
183 | SIWV | ≤ 0.2
184 | RRRD | ≤ 0.2
185 | VQGT | ≤ 0.2
186 | RLVG | 0.991
187 | SLQE | ≤ 0.2
188 | RWVP | ≤ 0.2
189 | RKAT | 0.818
190 | AVRT | ≤ 0.2
191 | QASN | ≤ 0.2
192 | SPPF | ≤ 0.2

Row | Variant | one-hybrid fitness for binding parS DNA
193 | SLYK | ≤ 0.2
194 | KPIR | ≤ 0.2
195 | QMIR | ≤ 0.2
196 | FFAA | ≤ 0.2
197 | LLYT | ≤ 0.2
198 | AFGN | ≤ 0.2
199 | QTDW | ≤ 0.2
200 | RRGL | ≤ 0.2
201 | LSLH | ≤ 0.2
202 | RASN | 0.435
203 | RQDF | 0.215
204 | MRRS | ≤ 0.2
205 | PENC | ≤ 0.2
206 | MNPS | ≤ 0.2
207 | TVSE | ≤ 0.2
208 | GSDN | ≤ 0.2
209 | EAIG | ≤ 0.2
210 | LWSS | ≤ 0.2
211 | DKCC | ≤ 0.2
212 | KKYT | ≤ 0.2
213 | VASR | ≤ 0.2
214 | GWFR | ≤ 0.2
215 | RKPN | ≤ 0.2
216 | HQPC | ≤ 0.2

Row | Variant | one-hybrid fitness for binding parS DNA
217 | SWVT | ≤ 0.2
218 | ATKQ | ≤ 0.2
219 | HFDR | ≤ 0.2
220 | HRSS | 0.415
221 | MYGY | ≤ 0.2
222 | DTNA | ≤ 0.2
223 | SCSS | ≤ 0.2
224 | VSIM | ≤ 0.2
225 | MMVS | ≤ 0.2
226 | KAGY | ≤ 0.2
227 | AQMS | ≤ 0.2
228 | STWN | ≤ 0.2
229 | ALLG | ≤ 0.2
230 | NPEF | ≤ 0.2
231 | CKYR | ≤ 0.2
232 | PVQS | ≤ 0.2
233 | IVNT | ≤ 0.2
234 | TTWT | ≤ 0.2
235 | AGMK | ≤ 0.2
236 | IYTP | ≤ 0.2
237 | VYES | ≤ 0.2
238 | LFYT | ≤ 0.2
239 | PHKG | ≤ 0.2
240 | RQYW | 0.214

Row | Variant | one-hybrid fitness for binding parS DNA
241 | SHES | ≤ 0.2
242 | KLMP | 0.256
243 | QERV | ≤ 0.2
244 | SEVR | ≤ 0.2
245 | YVAR | ≤ 0.2
246 | HDAP | ≤ 0.2
247 | WWHL | ≤ 0.2
248 | SHMC | ≤ 0.2
249 | GKPE | ≤ 0.2
250 | RENL | ≤ 0.2
251 | TAMI | ≤ 0.2
252 | VWTT | ≤ 0.2
253 | SAGF | ≤ 0.2
254 | SNGT | ≤ 0.2
255 | EIQR | ≤ 0.2
256 | CTLS | ≤ 0.2
257 | LHTM | ≤ 0.2
258 | PVSL | ≤ 0.2
259 | QSLG | ≤ 0.2
260 | LSDF | ≤ 0.2
261 | PQQK | ≤ 0.2
262 | RRWV | ≤ 0.2
263 | VTAG | ≤ 0.2
264 | PVVK | ≤ 0.2

Row | Variant | one-hybrid fitness for binding parS DNA
265 | QYAW | ≤ 0.2
266 | KMCR | ≤ 0.2
267 | GWQR | ≤ 0.2
268 | GQKR | ≤ 0.2
269 | GTIC | ≤ 0.2
270 | HPYT | ≤ 0.2
271 | WYTC | ≤ 0.2
272 | KGHS | ≤ 0.2
273 | PCFG | ≤ 0.2
274 | TNDI | ≤ 0.2
275 | FRNH | ≤ 0.2
276 | PSEF | ≤ 0.2
277 | MHNW | ≤ 0.2
278 | TVWG | ≤ 0.2
279 | RPNF | ≤ 0.2
280 | TFTL | ≤ 0.2
281 | LFCS | ≤ 0.2
282 | PSWF | ≤ 0.2
283 | SFCS | ≤ 0.2
284 | NVNK | ≤ 0.2
285 | ANPG | ≤ 0.2
286 | HRMH | ≤ 0.2
287 | VMSN | ≤ 0.2
288 | MAFE | ≤ 0.2

Row | Variant | one-hybrid fitness for binding parS DNA
289 | QVDT | ≤ 0.2
290 | NISA | ≤ 0.2
291 | KVSN | ≤ 0.2
292 | TPLL | ≤ 0.2
293 | QAMG | ≤ 0.2
294 | LWIR | ≤ 0.2
295 | NMHT | ≤ 0.2
296 | ILYW | ≤ 0.2
297 | KKNA | ≤ 0.2
298 | ANAV | ≤ 0.2
299 | KRWN | ≤ 0.2
300 | CLHS | ≤ 0.2
301 | NYIT | ≤ 0.2
302 | WYWS | ≤ 0.2
303 | YLHW | ≤ 0.2
304 | PLNA | ≤ 0.2
305 | DDTV | ≤ 0.2
306 | RHYP | ≤ 0.2
